These are yes or no findings as the source states them, for the method shown. Binding seen in cells or lysates may run through a third protein. Some entries that bind do so weakly or less than the wild type. For part of these data: Sequences can lack the tags named with a protein. Values belong to the molecule of their own block, whether it stands above or below them.
Columns and labels:
[1] = molecular target: T1, ERLIN1–FLAG (UniProt O75477); experiment: co-IP; FLAG-tagged proteins overexpressed 48 h in wild-type and EVI/WLS KO HEK293T cells; lysis in 20 mM Tris-HCl pH 7.4, 130 mM NaCl, 2 mM EDTA, 10% glycerol, 1% Triton X-100; anti-FLAG M2 Affinity Gel or control agarose beads overnight at 4°C; eluted with 3× FLAG peptide; western blot of endogenous partners
T1 sequence: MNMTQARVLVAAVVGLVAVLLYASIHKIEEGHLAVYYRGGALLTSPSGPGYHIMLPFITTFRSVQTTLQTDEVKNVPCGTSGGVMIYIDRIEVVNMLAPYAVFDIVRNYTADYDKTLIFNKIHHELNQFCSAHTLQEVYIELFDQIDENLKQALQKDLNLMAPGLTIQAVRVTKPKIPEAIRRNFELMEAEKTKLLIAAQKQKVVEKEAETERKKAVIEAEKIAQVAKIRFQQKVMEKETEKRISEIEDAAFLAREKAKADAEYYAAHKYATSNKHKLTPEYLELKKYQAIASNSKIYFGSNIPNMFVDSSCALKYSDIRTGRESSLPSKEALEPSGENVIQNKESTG

Sequences of proteins named here, by UniProt entry; tags and fusion partners are left off.
UniProt P61086: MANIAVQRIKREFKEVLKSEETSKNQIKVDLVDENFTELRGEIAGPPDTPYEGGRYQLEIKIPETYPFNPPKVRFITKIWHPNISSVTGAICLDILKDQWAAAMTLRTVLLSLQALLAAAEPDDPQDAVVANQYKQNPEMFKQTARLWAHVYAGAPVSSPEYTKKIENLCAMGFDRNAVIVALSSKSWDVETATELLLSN

[2] = molecular target: T2, ERLIN2 (endogenous) (human (endogenous in HEK293T)) (UniProt O94905); experiment: co-IP; endogenous IP without overexpression; wild-type and EVI/WLS KO HEK293T cells; lysis in 50 mM Tris-HCl pH 7.5, 150 mM NaCl, 1 mM EDTA, 10% glycerol, 0.25% sodium deoxycholate, 1% NP-40 alternative; 1 mg protein with 1 µl antibody and Dynabeads Protein G overnight at 4°C; western blot
T2 sequence: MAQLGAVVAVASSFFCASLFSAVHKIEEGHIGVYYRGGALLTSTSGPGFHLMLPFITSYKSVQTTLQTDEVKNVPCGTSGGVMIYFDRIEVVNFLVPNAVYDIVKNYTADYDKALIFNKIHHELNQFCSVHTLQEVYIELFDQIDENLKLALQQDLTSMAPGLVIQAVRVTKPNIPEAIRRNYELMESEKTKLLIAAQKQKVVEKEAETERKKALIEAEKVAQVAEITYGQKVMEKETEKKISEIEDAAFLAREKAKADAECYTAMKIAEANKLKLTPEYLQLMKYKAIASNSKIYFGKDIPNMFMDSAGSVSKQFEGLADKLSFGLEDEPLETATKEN

[3] = molecular target: T3, FAF2 (endogenous) (human (endogenous in HEK293T)) (UniProt Q96CS3); experiment: as above
T3 sequence: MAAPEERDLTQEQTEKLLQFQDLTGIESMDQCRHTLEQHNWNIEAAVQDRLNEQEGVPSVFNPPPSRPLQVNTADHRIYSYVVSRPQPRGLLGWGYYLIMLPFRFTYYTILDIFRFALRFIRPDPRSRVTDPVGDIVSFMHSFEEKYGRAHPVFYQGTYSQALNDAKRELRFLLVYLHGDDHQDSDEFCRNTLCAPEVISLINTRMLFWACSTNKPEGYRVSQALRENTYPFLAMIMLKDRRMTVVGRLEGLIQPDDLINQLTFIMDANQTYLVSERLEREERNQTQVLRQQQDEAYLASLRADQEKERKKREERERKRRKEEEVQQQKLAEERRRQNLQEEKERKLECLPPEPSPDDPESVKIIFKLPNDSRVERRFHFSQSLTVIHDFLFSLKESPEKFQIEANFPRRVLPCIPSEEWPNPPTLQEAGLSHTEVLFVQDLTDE

[4] = molecular target: T4, ERLIN2–FLAG (human (from the printed UniProt entry)) (UniProt O94905); experiment: co-IP; FLAG-tagged proteins overexpressed 48 h in wild-type and EVI/WLS KO HEK293T cells; lysis in 20 mM Tris-HCl pH 7.4, 130 mM NaCl, 2 mM EDTA, 10% glycerol, 1% Triton X-100; anti-FLAG M2 Affinity Gel or control agarose beads overnight at 4°C; eluted with 3× FLAG peptide; western blot of endogenous partners
T4 sequence: T2 sequence

[5] = molecular target: T5, FAF2–FLAG (human (from the printed UniProt entry)) (UniProt Q96CS3); experiment: as above
T5 sequence: T3 sequence

[6] = molecular target: FLAG–UBE2K (human (from the printed UniProt entry)) (UniProt P61086); experiment: as above
[7] = molecular target: T6, UBXN4–FLAG (human (from the printed UniProt entry)) (UniProt Q92575); experiment: as above
T6 sequence: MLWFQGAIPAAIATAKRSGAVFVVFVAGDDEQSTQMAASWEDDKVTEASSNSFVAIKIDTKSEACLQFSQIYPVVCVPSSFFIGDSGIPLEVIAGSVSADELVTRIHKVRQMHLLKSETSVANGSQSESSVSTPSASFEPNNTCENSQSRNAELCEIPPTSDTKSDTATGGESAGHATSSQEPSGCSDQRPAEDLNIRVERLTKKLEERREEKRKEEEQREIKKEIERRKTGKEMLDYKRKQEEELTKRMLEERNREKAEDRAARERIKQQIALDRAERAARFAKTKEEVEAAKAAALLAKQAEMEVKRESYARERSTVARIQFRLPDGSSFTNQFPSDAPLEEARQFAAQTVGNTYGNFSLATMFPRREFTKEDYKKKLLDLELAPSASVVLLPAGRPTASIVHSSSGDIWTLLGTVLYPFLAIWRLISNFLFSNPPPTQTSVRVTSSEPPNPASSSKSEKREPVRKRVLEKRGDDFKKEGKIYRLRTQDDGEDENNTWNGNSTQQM

[8] = molecular target: T7, PORCN–FLAG (UniProt Q9H237); experiment: as above
T7 sequence: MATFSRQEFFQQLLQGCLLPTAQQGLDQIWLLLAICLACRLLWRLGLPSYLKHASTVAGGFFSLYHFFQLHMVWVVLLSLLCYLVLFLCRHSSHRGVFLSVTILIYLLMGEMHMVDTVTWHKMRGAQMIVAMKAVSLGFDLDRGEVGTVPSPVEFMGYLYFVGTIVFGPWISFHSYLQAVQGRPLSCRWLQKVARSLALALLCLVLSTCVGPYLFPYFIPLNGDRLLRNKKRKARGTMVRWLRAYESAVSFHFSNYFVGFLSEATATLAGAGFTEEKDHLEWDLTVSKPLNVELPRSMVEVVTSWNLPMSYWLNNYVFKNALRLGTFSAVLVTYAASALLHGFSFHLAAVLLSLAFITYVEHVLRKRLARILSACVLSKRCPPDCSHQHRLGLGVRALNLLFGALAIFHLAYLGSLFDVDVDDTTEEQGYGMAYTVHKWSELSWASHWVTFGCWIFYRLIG

- binding [1]: no binding
Molecule: VCP (endogenous) (from UniProt P55072 1-806)

- binding [2]: binds
- binding [3]: binds
- binding [1]: no binding
- binding [4]: binds
- binding [5]: binds
- binding [6]: no binding
- binding [7]: binds
B1: EVI/WLS (endogenous) (protein, UniProt Q5T9L3 1-541)
chain: MAGAIIENMSTKKLCIVGGILLVFQIIAFLVGGLIAPGPTTAVSYMSVKCVDARKNHHKTKWFVPWGPNHCDKIRDIEEAIPREIEANDIVFSVHIPLPHMEMSPWFQFMLFILQLDIAFKLNNQIRENAEVSMDVSLAYRDDAFAEWTEMAHERVPRKLKCTFTSPKTPEHEGRYYECDVLPFMEIGSVAHKFYLLNIRLPVNEKKKINVGIGEIKDIRLVGIHQNGGFTKVWFAMKTFLTPSIFIIMVWYWRRITMMSRPPVLLEKVIFALGISMTFINIPVEWFSIGFDWTWMLLFGDIRQGIFYAMLLSFWIIFCGEHMMDQHERNHIAGYWKQVGPIAVGSFCLFIFDMCERGVQLTNPFYSIWTTDIGTELAMAFIIVAGICLCLYFLFLCFMVFQVFRNISGKQSSLPAMSKVRRLHYEGLIFRFKFLMLITLACAAMTVIFFIVSQVTEGHWKWGGVTVQVNSAFFTGIYGMWNLYVFALMFLYAPSHKNYGEDQSNGDLGVHSGEELQLTTTITHVDGPTEIYKLTRKEAQE

- binding [5]: binds
- binding [8]: binds
B2: ERLIN2 (endogenous) (protein, UniProt O94905 1-339)
chain: T2 sequence

- binding [8]: binds
- binding [7]: no binding
B3: FAF2 (endogenous) (protein, UniProt Q96CS3 1-445)
chain: T3 sequence
